Data taken from the supplement of paper PMC10126150.
Sequences with one replicate were seen in a single cluster, so their values are uncertain.

Test system: ATP
Assay: switch fluorescence ratio, 500 uM ATP over buffer (Cy3 cluster intensity, sum of 5 cycles each) (fold (ratio)); higher = stronger signal-on switching upon ATP binding; sequences stand for … in TCGTCGGCAGCGTCAGATGTGTATAAGAGACAGTTTTTTTTTTTTTTTTTTTTTTTTT…TC
Details: aptamer strand: ATP DNA aptamer (quencher-CACCTGGGGGAGTATTGCGGAGGAAGG + anchor), 100 nM annealed; ATP concentration: 500 uM; one replicate
Method in brief: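 Clusters with intensities outside 100-1000 RFU were excluded. The remaining Cy3-labelled switching-strand clusters on a modified Illumina MiSeq flow-cell had been annealed to 100 nM quencher-labelled ATP aptamer and imaged in selection buffer, then after 15 min with 500 uM ATP at 22 °C, for five cycles separated by NaOH stripping and re-annealing. The fluorescence ratio, averaged per switch-domain sequence, is each cluster's summed target-cycle Cy3 intensity over its summed buffer-cycle Cy3 intensity.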
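Also: ATP exposure 15 min at 22 °C before imaging.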

Row | Sequence | switch fluorescence ratio
1 | ATCTGCATCG | 1.08
2 | CCGAGCCCGC | 1.36
3 | CGTCGACTGT | 1.02
4 | TGTCACTTTT | 1.01
5 | GCTACCTGTG | 1.02
6 | TAGATCAAAT | 0.972
7 | TTTGACCTCT | 1.02
8 | CGACCGGCTG | 1.04
9 | GCTATGAGTG | 1.02
10 | ATGTTGATG | 0.991
11 | ATTCTAACAA | 0.999
12 | TTAAAACCCA | 1.39
13 | TTCAACCTCG | 1.04
14 | TGGTGCGCTA | 1.04
15 | TTAGTAGAC | 1.05
16 | CAATGCGTCG | 0.997
17 | AAGAGGACAC | 1.12
18 | CCGTTATTGG | 1
19 | TTAGGAGCAA | 2.96
20 | ACAATTTTCG | 0.982
21 | GCATATAACA | 0.975
22 | CACACGGTTG | 1.07

Row | Sequence | switch fluorescence ratio
23 | CTTGGTTTCG | 0.992
24 | AGAATTTAAG | 1.03
25 | GACAGGGCGT | 1.03
26 | TGCCTGCCAA | 1.06
27 | AGTATGGTCA | 0.992
28 | AGCGCAAAGC | 1.2
29 | ACATAATTTT | 1.01
30 | AAAGAGTTCG | 0.935
31 | CAGTAAATTG | 1.02
32 | CGATCCCCCC | 1.14
33 | GCTATCGGTC | 1.01
34 | ATAATATTAG | 0.981
35 | CGCGTGTTTT | 1.05
36 | TTATTCAAT | 0.995
37 | AACTTAGAGC | 0.99
38 | TGCCAGCCGT | 1.02
39 | GCCCGATCCG | 1.03
40 | GAGAATCTAT | 0.982
41 | CATGGGCCCT | 1.26
42 | AGAATGAAGC | 1.03
43 | AGTGCAAACT | 0.993
44 | TAGGTTGTCC | 1.02

Row | Sequence | switch fluorescence ratio
45 | AGTCCTTCAT | 1.14
46 | CGGTAGTAGC | 1.02
47 | AATTGTGAGA | 0.993
48 | ATATTAGTGT | 0.991
49 | CTACTCATGT | 1.03
50 | GACAACCAGT | 1.05
51 | AAGATCCACA | 0.988
52 | GGCGCTACTT | 0.991
53 | CCAGTTACAC | 0.996
54 | AGCGAATTTA | 1.02
55 | CGTGGACCA | 1.06
56 | AAATAGTTGA | 1
57 | TCAATGGCCG | 0.993
58 | TTAATCTTT | 0.962
59 | AAACGCGTCA | 0.979
60 | GGATAAGCGC | 1.03
61 | CTCACTGGGG | 1
62 | GCGGCTTGGT | 1
63 | GATAGTACAT | 1.06
64 | GACTGCCTCG | 0.978
65 | TATTAGCTC | 0.948
66 | TATGCCTATT | 0.972

Row | Sequence | switch fluorescence ratio
67 | CAACAGACTT | 1.02
68 | CTACATCAAA | 1.03
69 | CGGACCACGT | 1.01
70 | CTCAGGGTAT | 1.01
71 | AGCTACCGCG | 0.967
72 | CATTGGAGCG | 1.02
73 | AACTGGGAAC | 1.03
74 | TGGGAGGGAC | 0.978
75 | ATGGACCTTT | 1.04
76 | AATACGCGTA | 0.984
77 | TTTAAATTAC | 1.01
78 | GTTATTCAGG | 1.01
79 | GTGTGTAGTT | 0.987
80 | TTTCCACGAT | 1.05
81 | TCGAGAAGAG | 1
82 | CTTCGCGAA | 1.91
83 | TAAATCATAA | 0.969
84 | CCACGCACAT | 1.67
85 | TTGTCAGAAT | 0.987
